According to PubChem BioAssay AID504333 (National Center for Advancing Translational Sciences (NCATS), 2011):
The campaign covered roughly 360,000 compounds. About 16,000 (4.4%) were called active. The inconclusive results got no clear call from the source; some entries with a clear call stand among them for comparison. Calls come from the whole dose curve; as a rule, active = well fitted inhibition curve with a large enough effect; inconclusive = small, poorly fitted or top-dose-only effect; inactive = no such curve, though single readings can be large or run the other way. Potencies of inconclusive entries are doubtful fits and often do not repeat.

target: Bromodomain adjacent to zinc finger domain protein 2B (Homo sapiens) (UniProt Q9UIF8); test: qHTS Assay for Inhibitors of BAZ2B; settings: AlphaScreen BAZ2B-H3K14Ac peptide displacement; activity change, negative = inhibition: at 114 µM (top of the series) unless noted; note: nearly all actives have a fitted effect of over 60% in size
How it was run: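 AlphaScreen displacement of biotin-H3(5-23)K14Ac peptide (50 nM final) from BAZ2B (50 nM final) in PBS pH 7.4, 0.01% Tween-20; complex preformed 30 min RT, then compounds (top 110 uM) 30 min RT, beads 20 min dark.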
% is set by controls: 0 for no effect and ±100 for the full control effect; potency is the fitted concentration of half-maximal effect; tags give direction and shape of the fitted curve.

UniProt Q9UIF8, sequence (Q9UIF8 whole entry, looked up, the tested form may be a part): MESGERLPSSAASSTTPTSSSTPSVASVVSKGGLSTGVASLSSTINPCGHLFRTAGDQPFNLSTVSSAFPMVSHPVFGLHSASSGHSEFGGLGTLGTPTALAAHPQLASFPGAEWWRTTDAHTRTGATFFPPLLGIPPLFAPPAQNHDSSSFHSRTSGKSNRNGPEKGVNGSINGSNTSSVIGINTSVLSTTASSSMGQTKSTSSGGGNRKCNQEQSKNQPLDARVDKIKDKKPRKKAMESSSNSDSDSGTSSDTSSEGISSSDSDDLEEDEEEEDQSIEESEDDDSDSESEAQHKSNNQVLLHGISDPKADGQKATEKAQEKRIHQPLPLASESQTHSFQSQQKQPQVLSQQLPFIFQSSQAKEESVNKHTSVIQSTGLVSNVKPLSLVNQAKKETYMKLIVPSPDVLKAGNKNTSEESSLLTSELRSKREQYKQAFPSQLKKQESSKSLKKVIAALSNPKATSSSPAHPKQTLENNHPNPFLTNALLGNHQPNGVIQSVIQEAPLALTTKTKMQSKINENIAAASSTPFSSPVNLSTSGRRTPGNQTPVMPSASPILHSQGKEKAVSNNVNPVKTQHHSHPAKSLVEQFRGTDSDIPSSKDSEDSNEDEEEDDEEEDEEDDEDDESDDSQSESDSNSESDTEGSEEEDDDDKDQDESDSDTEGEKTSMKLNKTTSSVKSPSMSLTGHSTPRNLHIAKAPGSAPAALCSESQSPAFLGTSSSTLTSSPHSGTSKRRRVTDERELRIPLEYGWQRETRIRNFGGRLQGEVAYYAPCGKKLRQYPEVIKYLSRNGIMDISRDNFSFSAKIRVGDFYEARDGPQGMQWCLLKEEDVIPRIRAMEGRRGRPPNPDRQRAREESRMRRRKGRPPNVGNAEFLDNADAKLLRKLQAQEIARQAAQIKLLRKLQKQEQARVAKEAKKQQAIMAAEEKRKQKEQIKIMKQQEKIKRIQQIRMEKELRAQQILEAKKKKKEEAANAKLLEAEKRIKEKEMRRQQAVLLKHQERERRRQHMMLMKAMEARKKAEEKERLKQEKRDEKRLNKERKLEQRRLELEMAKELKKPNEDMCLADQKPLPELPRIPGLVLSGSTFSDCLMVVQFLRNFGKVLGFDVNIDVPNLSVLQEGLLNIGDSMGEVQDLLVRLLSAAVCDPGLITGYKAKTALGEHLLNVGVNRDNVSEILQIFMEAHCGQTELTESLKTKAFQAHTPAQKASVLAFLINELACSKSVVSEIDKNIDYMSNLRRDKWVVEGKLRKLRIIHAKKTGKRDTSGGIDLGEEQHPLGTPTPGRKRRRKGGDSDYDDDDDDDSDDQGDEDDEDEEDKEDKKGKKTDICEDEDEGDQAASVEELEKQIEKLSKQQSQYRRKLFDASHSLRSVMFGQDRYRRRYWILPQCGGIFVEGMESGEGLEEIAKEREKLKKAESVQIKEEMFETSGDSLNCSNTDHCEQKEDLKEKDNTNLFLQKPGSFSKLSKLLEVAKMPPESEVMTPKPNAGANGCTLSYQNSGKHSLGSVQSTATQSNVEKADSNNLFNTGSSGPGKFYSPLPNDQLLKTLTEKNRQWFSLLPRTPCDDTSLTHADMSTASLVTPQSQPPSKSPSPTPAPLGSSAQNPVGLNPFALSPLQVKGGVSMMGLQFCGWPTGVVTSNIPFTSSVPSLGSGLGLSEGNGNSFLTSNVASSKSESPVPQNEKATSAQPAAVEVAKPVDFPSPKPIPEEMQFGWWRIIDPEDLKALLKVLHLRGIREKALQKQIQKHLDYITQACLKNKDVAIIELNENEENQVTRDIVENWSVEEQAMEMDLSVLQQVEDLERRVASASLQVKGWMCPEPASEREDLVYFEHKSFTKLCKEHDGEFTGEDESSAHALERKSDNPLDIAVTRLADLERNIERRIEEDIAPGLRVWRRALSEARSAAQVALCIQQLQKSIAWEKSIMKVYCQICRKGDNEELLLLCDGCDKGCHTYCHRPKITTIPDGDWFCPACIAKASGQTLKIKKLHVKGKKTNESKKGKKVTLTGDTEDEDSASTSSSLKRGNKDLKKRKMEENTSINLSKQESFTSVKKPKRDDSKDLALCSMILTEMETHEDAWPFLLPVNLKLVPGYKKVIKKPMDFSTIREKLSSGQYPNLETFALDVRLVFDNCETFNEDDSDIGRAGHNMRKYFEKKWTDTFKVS

Row | SMILES | Potency | activity change, negative = inhibition
1 | COc1ccc(Cl)cc1NC(=O)CSC1=Nc2ccccc2C2=NC(CC(=O)NCc3ccc4c(c3)OCO4)C(=O)N12 (stereo not given) | inconclusive: 79.4 µM [inhibitor, single point] | –
2 | O=C(Oc1cccc2ccccc12)c1ccco1 | – | inactive: 5.39%
3 | CN(CC(=O)Nc1cccc(F)c1)C(=O)CCCc1c[nH]c2ccccc12 | – | inactive: -12.6%
4 | Fc1ccccc1-n1cc(-c2ccccc2)[nH]c1=S | inconclusive: 39.8 µM [inhibitor, partial curve] | –
5 | CCCc1nc(SCC(=O)Nc2nnc(CC)s2)c2c(=O)n(C)c(=O)n(C)c2n1 | – | inactive: -0.522%
6 | C/C(=N\NC(=O)c1ccncc1)c1cc2ccccc2o1 | – | inactive: -35%
7 | O=C(COc1ccc(Br)cc1Cl)N1CCN(c2ncccn2)CC1 | – | inactive: 13.2%
8 | O=[N+]([O-])c1ccc(N2CCN(Cc3ccc4c(c3)OCO4)CC2)nc1 | inconclusive: 79.4 µM [inhibitor, single point] | –
9 | OC(CNC1Cc2ccccc2C1)COc1ccc(Cl)cc1 (stereo not given) | – | inactive: -3.82%
10 | O=C(O)/C=C/C(=O)NNC(=O)c1ccc(Cl)cc1Cl | inconclusive: 50.1 µM [inhibitor, partial curve] | –
11 | CCOc1cc(NC(=S)NCCCN2CCOCC2)c(OCC)cc1NC(=O)c1ccc(OC)cc1 | inconclusive: 79.4 µM [inhibitor, single point] | –
12 | Cc1ccc(C)c(N2CCN(C(=O)Cn3nc(Cc4cccnc4)c4ccccc4c3=O)CC2)c1 | inconclusive: 44.7 µM [inhibitor, partial curve] | –
13 | COc1ccc(C(=O)OCN2C(=O)c3ccccc3C2=O)cc1 | inconclusive: 89.1 µM [inhibitor, single point] | –
14 | O=C(/C=C/c1ccco1)NC(=S)Nc1cccc(C(=O)O)c1 | active: 31.6 µM | –
15 | COc1cccc(C(=O)CC(=O)C(=O)Nc2cc(OC)c(OC)c(OC)c2)c1 | inconclusive: 79.4 µM [inhibitor, single point] | –
16 | O=C(O)c1ccc(CNc2ccccc2C(=O)O)cc1 | inconclusive: 89.1 µM [inhibitor, single point] | –
17 | Cc1cc(C)c2c(-n3cccc3)c(C(=O)NNS(=O)(=O)c3ccc(F)cc3)sc2n1 | inconclusive: 89.1 µM [inhibitor, single point] | –
18 | O=C1CCCc2c1cc(C(=O)Nc1ccc(Cl)cn1)c(=O)n2-c1ccccc1 | inconclusive: 89.1 µM [inhibitor, single point] | –
19 | CCc1ccc(-c2csc(-c3cc4cc(Br)ccc4oc3=O)n2)cc1 | – | inactive: 63.8%
20 | CC(C)[C@@H]1NC(=O)c2cc([N+](=O)[O-])cc(F)c2NCCC[C@@H](C(N)=O)NC(=O)[C@H](CO)NC1=O | inconclusive: 89.1 µM [inhibitor, partial curve] | –
